Experimental data published in the supplement of paper PMC3334620.
The full ranking holds about 33,000 sequences; the median of “E-score (-0.5 to 0.5)” is about -0.013, and the highest 2% start at about 0.3. The list shows a part of the results.

These sequences were tested against T1, Msn1 (UniProt P22148) (assay: PBM E-score (8-mer binding enrichment) (E-score (-0.5 to 0.5)); higher = stronger / more preferred TF binding; most listed sequences are background and not binding sites). Conditions: protein concentration: 200 nM; construct: GST-full length.
T1 sequence: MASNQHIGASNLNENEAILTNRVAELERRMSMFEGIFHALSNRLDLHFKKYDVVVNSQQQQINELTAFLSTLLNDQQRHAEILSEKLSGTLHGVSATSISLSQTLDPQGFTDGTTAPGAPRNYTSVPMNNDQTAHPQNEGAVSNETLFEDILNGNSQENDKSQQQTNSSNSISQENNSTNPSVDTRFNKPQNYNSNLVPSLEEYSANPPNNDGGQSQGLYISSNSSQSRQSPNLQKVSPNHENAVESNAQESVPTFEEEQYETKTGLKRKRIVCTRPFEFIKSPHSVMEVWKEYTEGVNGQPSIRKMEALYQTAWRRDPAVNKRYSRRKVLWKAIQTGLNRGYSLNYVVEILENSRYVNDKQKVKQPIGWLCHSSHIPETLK
Summary of the method: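 Bound GST-tagged yeast transcription factors, applied at about 100-200 nM to double-stranded universal all-10-mer Agilent arrays, were detected with fluorescent anti-GST. Scans were normalised with masliner. A modified Wilcoxon-Mann-Whitney statistic, the E-score, was assigned to each ungapped eight-base word pooled with its reverse complement by the Universal PBM Analysis Suite.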

| Sequence | PBM E-score |
| --- | --- |
| CATAAATA | 0.109 |
| CGGTGTAC | 0.084 |
| GAGGTATC | -0.0331 |
| TCGAACGA | 0.0621 |
| ATACTGAC | 0.184 |
| CCAAATAG | -0.0591 |
| ACGTGGAG | -0.101 |
| CCGGCTAC | -0.142 |
| AGACTGTC | -0.057 |
| CCCACGAG | -0.172 |
| CTTGCCTC | -0.0298 |
| ATGCCCTA | -0.185 |
| CCTCTTCG | -0.142 |
| CGCCCCAC | -0.383 |
| AACGAGCC | -0.0957 |
| AGGACTCC | 0.00229 |
| AGCTTGCC | -0.108 |
| GCGATGGA | 0.117 |
| AGTATATA | 0.258 |
| CCACTAGA | -0.3 |
| ACCACCTA | -0.169 |
| ATCCCTAG | 0.0688 |
| CACTGAAC | 0.0298 |
| ACGCGGTC | 0.0452 |
| CTGACGCC | -0.121 |

| Sequence | PBM E-score |
| --- | --- |
| AAAGGTAG | -0.0444 |
| CTGCCCCC | -0.386 |
| ACGCAACC | 0.117 |
| ACTCATAA | -0.0152 |
| AGCTCATG | -0.152 |
| CTCTAAAG | -0.158 |
| GCATTGCA | -0.0621 |
| AAGGGCAC | -0.153 |
| CGGAGTCC | -0.00443 |
| CGCGGCTA | -0.0186 |
| ACATGTGC | 0.0743 |
| CGGGTCGA | -0.166 |
| CCTACCGA | -0.166 |
| AAAGGGTG | -0.162 |
| ACGGATTG | 0.115 |
| GATGCTGC | -0.118 |
| CTAGAGAC | -0.0426 |
| CTCGGAAG | 0.0158 |
| GACCTCTC | -0.0307 |
| AACTACCG | -0.0649 |
| GATAAACC | 0.118 |
| GGGGTTGA | -0.225 |
| AACATCGT | -0.00311 |
| CGTTGGCA | 0.0434 |
| CGCAATCC | 0.0533 |

| Sequence | PBM E-score |
| --- | --- |
| AATTACTC | 0.133 |
| GTTAGGCA | -0.105 |
| ACTGTCAG | 0.124 |
| ACCGTGTG | -0.113 |
| GAGGTCTA | -0.0808 |
| ACTCCTTC | -0.277 |
| ACCCCTCT | -0.318 |
| AGCTAGAG | -0.071 |
| CGGCTTTC | -0.00528 |
| GACCAGGA | 0.102 |
| TGGGTGAA | 0.166 |
| GCGGCTAA | -0.0202 |
| ACAGGAAT | 0.134 |
| AGGATAAG | -0.249 |
| CGAATATC | 0.0301 |
| CACCTGAG | -0.0701 |
| TAGCATGA | -0.0902 |
| TATTCTAA | 0.143 |
| TTCATCAA | -0.105 |
| CGATCGAC | 0.0408 |
| ATTCAATA | 0.211 |
| CTACTATC | 0.234 |
| ATCAGTAC | 0.156 |
| ACGGGCAA | -0.035 |
| CAGACCCG | -0.0499 |

| Sequence | PBM E-score |
| --- | --- |
| GTCTAAAC | 0.0711 |
| CAATTCAG | 0.0996 |
| TTCGTCAA | -0.0823 |
| CCCCATGC | -0.294 |
| AAGAACGT | 0.0227 |
| ATCAACAT | 0.0928 |
| AGGTAAGA | 0.0114 |
| CTAGCGAG | -0.205 |
| TGCCTCCA | -0.291 |
| CAGCGTGC | -0.176 |
| ATTTTCAC | 0.175 |
| CCAGTCCC | -0.193 |
| GCGTATGA | -0.00068 |
| AATTATAG | 0.063 |
| AACCAATG | 0.0117 |
| AAGCCAAC | -0.0995 |
| AATACAAT | 0.1 |
| AACGGTGA | -0.0571 |
| ATCCGTTC | 0.0622 |
| CACGACGA | -0.161 |
| ATGAGATC | 0.0277 |
| CAAATTAA | 0.0951 |
| CAAAACGA | 0.153 |
| AAGTGGAG | -0.108 |
| AATCATGC | -0.255 |

| Sequence | PBM E-score |
| --- | --- |
| CTCAAGCA | -0.0897 |
| ATCACCTA | 0.0704 |
| TAAACAGA | 0.02 |
| CATTCTGC | 0.165 |
| GAGGATCC | -0.0362 |
| GTCTCGTA | -0.0386 |
| ACACATGC | 0.0801 |
| AATAGTTA | -0.1 |
| ACGCCTAC | -0.136 |
| GAATGACC | 0.201 |
| CCTTCCGC | -0.175 |
| ACCGTTAT | 0.0456 |
| ACTCATCA | -0.0883 |
| AGGCACCA | -0.178 |
| AATCGATA | 0.172 |
| CCTCCAAG | -0.0188 |
| ATTAACAA | 0.257 |
| GAACACCA | -0.0259 |
| AGAGCCCG | -0.226 |
| TCGATAGA | 0.028 |
| TCATCAAA | 0.0326 |
| TCGTTAAA | -0.0199 |
| CACATCTC | 0.0156 |
| ACCCATCC | -0.197 |
| AAGTGGGG | -0.261 |

| Sequence | PBM E-score |
| --- | --- |
| GAGCAATA | -0.0215 |
| AGCACTTC | -0.118 |
| CATTAGTA | 0.213 |
| CTTAAAGC | 0.0598 |
| CCACTGGA | -0.216 |
| ATCCTGAG | 0.118 |
| ATGTGCCA | 0.0995 |
| AATTACAG | 0.0932 |
| CCTATCCC | 0.0752 |
| CCAAAATC | 0.0937 |
| GCGCCACA | -0.184 |
| AAATTTTA | 0.0681 |
| AGACGCCC | -0.089 |
| AACGTGAT | -0.103 |
| CCGATTGA | 0.0682 |
| CCATGGCG | 0.059 |
| AACTCAGA | 0.0578 |
| AAAATGCA | -0.0363 |
| CCTTTCCG | 0.0597 |
| CTTCACGC | 0.157 |
| CTCCCGAA | -0.206 |
| ATCCACTA | 0.0543 |
| CACAGTGC | -0.156 |
| CAGCTAAA | -0.123 |
| CAACATGA | 0.0232 |

| Sequence | PBM E-score |
| --- | --- |
| AGCAGTAT | 0.0528 |
| AACGTATT | -0.0825 |
| GGGGAGAC | -0.132 |
| GCATATCA | 0.0793 |
| GCCTTTCC | -0.0629 |
| GGAAACCC | -0.0913 |
| GCGTTAAA | -0.0148 |
| AAACCAAT | 0.126 |
| GCAGACTA | -0.039 |
| GGGATGGA | -0.159 |
| CCGAAAGC | 0.0281 |
| TAACGTGA | -0.034 |
| CATGTTCG | -0.00769 |
| CGTCCCTC | -0.0571 |
| CCGTTTCC | -0.0828 |
| AAGTGGCT | -0.104 |
| TCAGAGGA | -0.12 |
| CGCTGCAG | -0.119 |
| AAGTAGTC | 0.135 |
| CAAGGCCG | 0.0133 |
| GATGTTAC | 0.17 |
| GGCATAGA | 0.055 |
